In the supplement of paper PMC4604168 (melanoma cell lines):
This is one part of the list. Many values rest on one well or one pass, so single values are uncertain.

Legend:
Experiment in all cases: cell count relative to DMSO control; melanoma cells; higher = more viable cells
Settings in all cases: library dose: low library concentration; 72 h
[1] = test system: MZ2-MEL
[2] = test system: MeWo
[3] = test system: RPMI7951
[4] = test system: RVH-421
[5] = test system: SkMel28
[6] = test system: SkMel2
[7] = test system: SkMel30
[8] = test system: SkMel5
[9] = test system: UACC257
[10] = test system: UACC62
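Also: cell number obtained by counting DAPI-stained nuclei in high-throughput microscope images with image analysis software, screen run in 1,536-well plates.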

SMILES | cell count [1] | cell count [2] | cell count [3] | cell count [4] | cell count [5] | cell count [6] | cell count [7] | cell count [8] | cell count [9] | cell count [10]
O=C(/C=C/c1cccnc1)NCCCCC1CCN(C(=O)c2ccccc2)CC1 + N#Cc1c(O)c2c(-c3ccc(-c4ccccc4O)cc3)csc2[nH]c1=O [A769662] (first compound 0.01 µM, partner dose 2 µM) | 38.8% | 96.8% | 115% | 51.2% | 93.7% | 48.6% | 107% | 97.4% | 123% | 92.5%
O=C(/C=C/c1cccnc1)NCCCCC1CCN(C(=O)c2ccccc2)CC1 + Cn1cncc1[C@@](N)(c1ccc(Cl)cc1)c1ccc2c(c1)c(-c1cccc(Cl)c1)cc(=O)n2C [tipifarnib] (first compound 0.01 µM, partner dose 0.01 µM) | 48.4% | 104% | 97.4% | 61.5% | 79.6% | 55.3% | 90.9% | 87.2% | 83.1% | 76.5%
Cc1ccc(Nc2nccc(N(C)c3ccc4c(C)n(C)nc4c3)n2)cc1S(N)(=O)=O [Pazopanib] + Cn1cncc1[C@@](N)(c1ccc(Cl)cc1)c1ccc2c(c1)c(-c1cccc(Cl)c1)cc(=O)n2C [tipifarnib] (first compound 0.4 µM, partner dose 0.01 µM) | 85.4% | 97.2% | 96.2% | 87.5% | 80.2% | 76.1% | 86.7% | 88% | 67.4% | 59.8%
O=C(/C=C/c1cccnc1)NCCCCC1CCN(C(=O)c2ccccc2)CC1 + Cc1cc(N2CCOCC2)cc2[nH]c(-c3c(NC[C@@H](O)c4cccc(Cl)c4)cc[nH]c3=O)nc12 [BMS536924] (first compound 0.01 µM, partner dose 0.2 µM) | 47.5% | 103% | 128% | 37.8% | 80.6% | 50% | 86.2% | 87.8% | 81.2% | 90%
CC1(C)CCC(c2ccc(Cl)cc2)=C(CN2CCN(c3ccc(C(=O)NS(=O)(=O)c4ccc(N[C@H](CCN5CCOCC5)CSc5ccccc5)c(S(=O)(=O)C(F)(F)F)c4)cc3)CC2)C1 + COc1cc(N2CCC(N3CCN(C)CC3)CC2)ccc1Nc1ncc(Cl)c(Nc2ccccc2S(=O)(=O)C(C)C)n1 [NVP-TAE684] (first compound 0.4 µM, partner dose 0.08 µM) | 101% | 50% | 55.8% | 61.6% | 89.2% | 81.7% | 54.4% | 45.1% | 35.5% | 104%
Cc1ccc(Nc2nccc(N(C)c3ccc4c(C)n(C)nc4c3)n2)cc1S(N)(=O)=O [Pazopanib] + Cc1cc(N2CCOCC2)cc2[nH]c(-c3c(NC[C@@H](O)c4cccc(Cl)c4)cc[nH]c3=O)nc12 [BMS536924] (first compound 0.4 µM, partner dose 0.2 µM) | 89.5% | 93.9% | 101% | 103% | 98.7% | 93.6% | 62.2% | 89.4% | 105% | 93.3%
O=C(/C=C/c1cccnc1)NCCCCC1CCN(C(=O)c2ccccc2)CC1 + O=S(=O)(c1ccccc1)N(CC(F)(F)F)c1ccc(C(O)(C(F)(F)F)C(F)(F)F)cc1 [T0901317] (first compound 0.01 µM, partner dose 1.4 µM) | 41.1% | 93% | 105% | 37.2% | 91.7% | 40.4% | 100% | 92.2% | 85.6% | 102%
Cc1ccc(Nc2nccc(N(C)c3ccc4c(C)n(C)nc4c3)n2)cc1S(N)(=O)=O [Pazopanib] + COc1cc(N2CCC(N3CCN(C)CC3)CC2)ccc1Nc1ncc(Cl)c(Nc2ccccc2S(=O)(=O)C(C)C)n1 [NVP-TAE684] (first compound 0.4 µM, partner dose 0.08 µM) | 79.8% | 88.4% | 66.5% | 86.2% | 97.5% | 90.5% | 62.3% | 93.2% | 59.5% | 86.6%
Cc1ccc(Nc2nccc(N(C)c3ccc4c(C)n(C)nc4c3)n2)cc1S(N)(=O)=O [Pazopanib] + COc1ccc(-c2ccc3c(N4CCOCC4)nc(N4C[C@@H](C)O[C@@H](C)C4)nc3n2)cc1CO [KU0063794] (first compound 0.4 µM, partner dose 0.02 µM) | 82.2% | 98.9% | 75.6% | 90.9% | 85% | 101% | 87.8% | 89.6% | 69.2% | 92.7%
O=C(/C=C/c1cccnc1)NCCCCC1CCN(C(=O)c2ccccc2)CC1 + COc1cc2c(Oc3ccc4[nH]c(C)cc4c3F)ncnc2cc1OCCCN1CCCC1 [cediranib] (first compound 0.01 µM, partner dose 0.4 µM) | 47.6% | 106% | 91.8% | 54.8% | 89.4% | 54.5% | 102% | 94.9% | 102% | 91.2%
CC1(C)CCC(c2ccc(Cl)cc2)=C(CN2CCN(c3ccc(C(=O)NS(=O)(=O)c4ccc(N[C@H](CCN5CCOCC5)CSc5ccccc5)c(S(=O)(=O)C(F)(F)F)c4)cc3)CC2)C1 + COc1cc2ncnc(Nc3ccc(Oc4ccccc4)cc3)c2cc1OC [SrcI1] (first compound 0.4 µM, partner dose 2 µM) | 97% | 72.2% | 80% | 78.3% | 96.5% | 103% | 88.8% | 77.2% | 94.5% | 84.5%
CC1(C)CCC(c2ccc(Cl)cc2)=C(CN2CCN(c3ccc(C(=O)NS(=O)(=O)c4ccc(N[C@H](CCN5CCOCC5)CSc5ccccc5)c(S(=O)(=O)C(F)(F)F)c4)cc3)CC2)C1 + O=C(O)c1ccc(-c2c[nH]c3ncc(-c4ccccc4)cc23)cc1C1CCCC1 [GSK650394] (first compound 0.4 µM, partner dose 0.16 µM) | 108% | 70.3% | 64.4% | 63.7% | 84.2% | 93.6% | 65.5% | 52.5% | 99.1% | 101%
Cc1ccc(Nc2nccc(N(C)c3ccc4c(C)n(C)nc4c3)n2)cc1S(N)(=O)=O [Pazopanib] + N#Cc1c(O)c2c(-c3ccc(-c4ccccc4O)cc3)csc2[nH]c1=O [A769662] (first compound 0.4 µM, partner dose 2 µM) | 77.8% | 112% | 93.8% | 98.8% | 102% | 94.1% | 89.1% | 102% | 94.8% | 100%
CC1(C)CCC(c2ccc(Cl)cc2)=C(CN2CCN(c3ccc(C(=O)NS(=O)(=O)c4ccc(N[C@H](CCN5CCOCC5)CSc5ccccc5)c(S(=O)(=O)C(F)(F)F)c4)cc3)CC2)C1 + Cn1cncc1[C@@](N)(c1ccc(Cl)cc1)c1ccc2c(c1)c(-c1cccc(Cl)c1)cc(=O)n2C [tipifarnib] (first compound 0.4 µM, partner dose 0.01 µM) | 91.9% | 76.1% | 65.5% | 64% | 75.3% | 65% | 54% | 67.8% | 54.5% | 69.1%
Cc1ccc(Nc2nccc(N(C)c3ccc4c(C)n(C)nc4c3)n2)cc1S(N)(=O)=O [Pazopanib] + CC(C)(C)c1cnc(CSc2cnc(NC(=O)C3CCNCC3)s2)o1 [SNS-032] (first compound 0.4 µM, partner dose 0.01 µM) | 80.7% | 92.5% | 91.6% | 88.5% | 99.9% | 112% | 78.7% | 82.7% | 94.3% | 84.4%
CC1(C)CCC(c2ccc(Cl)cc2)=C(CN2CCN(c3ccc(C(=O)NS(=O)(=O)c4ccc(N[C@H](CCN5CCOCC5)CSc5ccccc5)c(S(=O)(=O)C(F)(F)F)c4)cc3)CC2)C1 + C=CCn1c(=O)c2cnc(Nc3ccc(N4CCN(C)CC4)cc3)nc2n1-c1cccc(C(C)(C)O)n1 [MK1775] (first compound 0.4 µM, partner dose 0.02 µM) | 97.8% | 71.7% | 46.3% | 72% | 85.1% | 74.6% | 55.5% | 84.3% | 75.3% | 76.9%
Cc1ccc(Nc2nccc(N(C)c3ccc4c(C)n(C)nc4c3)n2)cc1S(N)(=O)=O [Pazopanib] + Oc1cc(-c2nc(-c3ccccc3)[nH]c2-c2ccncc2)ccc1Cl [L779450] (first compound 0.4 µM, partner dose 0.2 µM) | 70.1% | 109% | 91.4% | 93.9% | 79.3% | 82.8% | 82.9% | 85.5% | 72% | 76.1%
CC1(C)CCC(c2ccc(Cl)cc2)=C(CN2CCN(c3ccc(C(=O)NS(=O)(=O)c4ccc(N[C@H](CCN5CCOCC5)CSc5ccccc5)c(S(=O)(=O)C(F)(F)F)c4)cc3)CC2)C1 + CC(C)(C)c1cnc(CSc2cnc(NC(=O)C3CCNCC3)s2)o1 [SNS-032] (first compound 0.4 µM, partner dose 0.01 µM) | 106% | 82.6% | 50.2% | 63.4% | 81% | 81.6% | 78.5% | 65.8% | 71% | 87.6%
O=C(/C=C/c1cccnc1)NCCCCC1CCN(C(=O)c2ccccc2)CC1 + O=C(O)C(=O)Nc1sc2c(c1C(=O)O)CCNC2 [TCS401] (first compound 0.01 µM, partner dose 1.66667 µM) | 73.5% | 114% | 111% | 85.1% | 91.1% | 66.4% | 84.2% | 84.7% | 86.7% | 81.2%
Cc1ccc(Nc2nccc(N(C)c3ccc4c(C)n(C)nc4c3)n2)cc1S(N)(=O)=O [Pazopanib] + COc1cc(Nc2ncc(F)c(Nc3ccc4c(n3)NC(=O)C(C)(C)O4)n2)cc(OC)c1OC [Tamatinib] (first compound 0.4 µM, partner dose 0.4 µM) | 82.9% | 89.4% | 71.5% | 91% | 74.5% | 99.5% | 76.2% | 79.1% | 70.6% | 83.8%
